{
  "source": "the BET-seq Pho4 binding data (Le et al. 2018)",
  "note": "This is one part of the list. Values were computed here from the reads of four pooled replicates and scatter widely.",
  "data": [
    {"target": "T1, Pho4 (S. cerevisiae) (UniProt P07270)", "T1 sequence": "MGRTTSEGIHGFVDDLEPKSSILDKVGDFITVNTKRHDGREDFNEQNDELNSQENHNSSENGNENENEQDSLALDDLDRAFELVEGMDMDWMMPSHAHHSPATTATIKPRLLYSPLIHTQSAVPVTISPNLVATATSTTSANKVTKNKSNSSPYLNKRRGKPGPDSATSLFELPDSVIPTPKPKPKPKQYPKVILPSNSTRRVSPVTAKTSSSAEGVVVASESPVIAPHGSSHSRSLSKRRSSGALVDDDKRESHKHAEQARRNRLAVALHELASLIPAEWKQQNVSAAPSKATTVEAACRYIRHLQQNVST", "assay": "relative binding free energy (BET-seq); higher = weaker binding", "conditions": "reference: library average", "units": {"relative binding free energy": "kcal/mol"}, "values": [
      {"sequence": "TGTGACACGTGGAATA", "relative binding free energy": 0},
      {"sequence": "GGTGCCACGTGATGAG", "relative binding free energy": 0.07},
      {"sequence": "CTTTGCACGTGAGATT", "relative binding free energy": 0.32},
      {"sequence": "TGTCGCACGTGTAAAT", "relative binding free energy": 0},
      {"sequence": "CGGGCCACGTGGGCGT", "relative binding free energy": -0.26},
      {"sequence": "GTTATCACGTGGGAGG", "relative binding free energy": 0.18},
      {"sequence": "GGGGGCACGTGTGGAT", "relative binding free energy": 0.01},
      {"sequence": "ATCTTCACGTGACGTT", "relative binding free energy": 0.37},
      {"sequence": "ATTCTCACGTGAAGTG", "relative binding free energy": 0.24},
      {"sequence": "TAGTGCACGTGTCGAG", "relative binding free energy": -0.08},
      {"sequence": "TGAGGCACGTGGACAT", "relative binding free energy": -0.13},
      {"sequence": "GCGTGCACGTGGTCTG", "relative binding free energy": -0.2},
      {"sequence": "AGGGACACGTGGGACG", "relative binding free energy": -0.18},
      {"sequence": "TTGAGCACGTGGTCTT", "relative binding free energy": -0.16},
      {"sequence": "GGTAGCACGTGTAATT", "relative binding free energy": 0.17},
      {"sequence": "GCCGGCACGTGGGAGT", "relative binding free energy": -0.15},
      {"sequence": "GTGATCACGTGCCTGG", "relative binding free energy": 0.07},
      {"sequence": "GGAGCCACGTGGAGGG", "relative binding free energy": 0},
      {"sequence": "TGTCGCACGTGTATTT", "relative binding free energy": -0.03},
      {"sequence": "AATGGCACGTGTTGCT", "relative binding free energy": -0.11},
      {"sequence": "CTATGCACGTGTAGTT", "relative binding free energy": 0.1},
      {"sequence": "GTTCCCACGTGGTTTT", "relative binding free energy": -0.04},
      {"sequence": "AGTAGCACGTGAGTGC", "relative binding free energy": 0.17},
      {"sequence": "AGCTTCACGTGTGGTT", "relative binding free energy": 0.34},
      {"sequence": "TGTAACACGTGTTATT", "relative binding free energy": -0.14},
      {"sequence": "GGATCCACGTGGTTTG", "relative binding free energy": -0.01},
      {"sequence": "TTGGTCACGTGGAACT", "relative binding free energy": 0.11},
      {"sequence": "GACGGCACGTGGGGGC", "relative binding free energy": -0.22},
      {"sequence": "TTGTCCACGTGGGGTG", "relative binding free energy": -0.13},
      {"sequence": "GGTATCACGTGTTACT", "relative binding free energy": 0.22},
      {"sequence": "GCGGGCACGTGGAGGA", "relative binding free energy": -0.1},
      {"sequence": "CCGTGCACGTGTGGGA", "relative binding free energy": -0.03},
      {"sequence": "TCAAACACGTGTTGTT", "relative binding free energy": 0.13},
      {"sequence": "TTATGCACGTGTTGTC", "relative binding free energy": 0.03},
      {"sequence": "GAGAACACGTGTAGGG", "relative binding free energy": 0},
      {"sequence": "TGGGGCACGTGGAGTT", "relative binding free energy": 0.01},
      {"sequence": "GGAAGCACGTGGAGAT", "relative binding free energy": -0.09},
      {"sequence": "GGTATCACGTGGAGGA", "relative binding free energy": 0.17},
      {"sequence": "GGGTGCACGTGGGTGG", "relative binding free energy": -0.13},
      {"sequence": "GACGGCACGTGAGGGT", "relative binding free energy": 0.22},
      {"sequence": "GGTGTCACGTGACAGG", "relative binding free energy": 0.1},
      {"sequence": "TGCTCCACGTGAGTGT", "relative binding free energy": 0.17},
      {"sequence": "TGTTGCACGTGGGTAC", "relative binding free energy": -0.11},
      {"sequence": "TAAGGCACGTGGGGAT", "relative binding free energy": -0.16},
      {"sequence": "TCTTTCACGTGTGAAT", "relative binding free energy": 0.34},
      {"sequence": "AGGCACACGTGGGGTT", "relative binding free energy": -0.07},
      {"sequence": "TATGGCACGTGTAGGG", "relative binding free energy": -0.08},
      {"sequence": "CTGCTCACGTGTTGTG", "relative binding free energy": 0.14},
      {"sequence": "TTAAACACGTGTCGAG", "relative binding free energy": 0.17},
      {"sequence": "GTTAGCACGTGTCTTA", "relative binding free energy": 0.15},
      {"sequence": "TGTATCACGTGTTATT", "relative binding free energy": 0.1},
      {"sequence": "AGGAGCACGTGTGATG", "relative binding free energy": -0.11},
      {"sequence": "TTATGCACGTGCGGGC", "relative binding free energy": -0.05},
      {"sequence": "TGGAACACGTGTATTA", "relative binding free energy": 0.08},
      {"sequence": "TGTATCACGTGACATT", "relative binding free energy": 0.31},
      {"sequence": "GGTATCACGTGTTTCG", "relative binding free energy": 0.38},
      {"sequence": "AGTTTCACGTGAGGGA", "relative binding free energy": 0.37},
      {"sequence": "TGGCTCACGTGAAGTA", "relative binding free energy": 0.34},
      {"sequence": "CCTTTCACGTGGGGTT", "relative binding free energy": 0.05},
      {"sequence": "GGTTCCACGTGTATAG", "relative binding free energy": 0.21},
      {"sequence": "GCAGACACGTGTGTTG", "relative binding free energy": 0.06},
      {"sequence": "GGATACACGTGGGTAA", "relative binding free energy": -0.05},
      {"sequence": "TGTTTCACGTGACGGT", "relative binding free energy": 0.37},
      {"sequence": "CTTTGCACGTGGGCAT", "relative binding free energy": -0.27},
      {"sequence": "GTATGCACGTGGGAGT", "relative binding free energy": 0.01},
      {"sequence": "CTTGACACGTGTTAGT", "relative binding free energy": 0.02},
      {"sequence": "ATTTACACGTGGGTAG", "relative binding free energy": -0.07},
      {"sequence": "GATTTCACGTGTTTTA", "relative binding free energy": 0.26},
      {"sequence": "TGTGTCACGTGGTTTG", "relative binding free energy": -0.04},
      {"sequence": "TGTGGCACGTGTACTT", "relative binding free energy": -0.11},
      {"sequence": "TTGAGCACGTGAAGGA", "relative binding free energy": 0.24},
      {"sequence": "AATGGCACGTGGCGAG", "relative binding free energy": -0.15},
      {"sequence": "AAGTTCACGTGGGAGG", "relative binding free energy": 0.24}
    ]}
  ]
}
